Test results taken from PubChem BioAssay AID1347417 (National Center for Advancing Translational Sciences (NCATS), 2020).
About 5,300 (4.4%) of roughly 120,000 compounds were called active. The inconclusive results got no clear call from the source; some entries with a clear call stand among them for comparison. Calls follow the shape of the dose curve; as a rule, active = well fitted inhibition curve with a large enough effect; inconclusive = small, poorly fitted or top-dose-only effect; inactive = no such curve, though single readings can be large or run the other way. Potencies of inconclusive entries are doubtful fits and often do not repeat.

Experiment: qHTS Primary assay for Inhibitors of Plasmodium falciparum Dd2 growth in vitro; also: nearly all actives have a fitted effect of over 65% in size;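 as to activity, negative = inhibition: plate controls were DMSO vehicle for no effect and reference drug for full effect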
Settings: P. falciparum Dd2 growth, SYBR Green, 72 h; activity, negative = inhibition: at 28.9 µM (top of the series) unless noted; series mostly up to 28.9 µM
Method in brief: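 Infected erythrocytes (Dd2, 0.3% parasitemia, 2.5% hematocrit final) are added to compound in RPMI-1640/Albumax II medium, grown 72 h at 37C in low oxygen, then lysed with saponin/Triton-X containing SYBR Green and read by fluorescence.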
Potency is read from the fitted curve at half-maximal effect; tags tell the direction and shape of the fitted curve.

Structure (SMILES)	Potency	activity, negative = inhibition	outcome
Fc1ccc(N2CCN(c3ncnc4[nH]ncc34)CC2)cc1	inconclusive: 12.6 µM [inhibitor, single point]		
COc1cc(Cl)ccc1C(=O)N[C@@H]1CN(c2ccncn2)C[C@H]1CN(C)C	inconclusive: 3.98 µM [inhibitor, single point]		
O=C(c1[nH]nc2c1CCc1ccccc1-2)N1CCC(c2noc(-c3ccccn3)n2)C1 (stereo unspecified)	inconclusive: 0.631 µM [inhibitor, partial curve, poor fit]		
CCOC(=O)C1CCCN(C(=O)CC(c2ccc3c(c2)OCO3)c2cn(CC)c3ccccc23)C1 (stereo unspecified)	active: 7.08 µM		
CCc1cc(=O)n(CC(=O)Nc2ccc(Br)cc2)c(N2CCOCC2)n1	inconclusive: 3.98 µM [inhibitor, single point]		
CSCc1nc(CNc2nc(C3CCCC3)nc3c2cnn3C)cs1	inconclusive: 12.6 µM [inhibitor, single point]		
COc1cccc(-c2n[nH]c3c2CC(=O)N(CCc2ccncc2)C3)c1OC		inactive: 0.539% [at 44.1 µM]	
COc1cc2c(cc1OC)C(CNC(=O)c1ccccc1C)N(C(=O)Nc1ccccc1)CC2 (stereo unspecified)	inconclusive: 17.8 µM [inhibitor, single point]		
CCCCCNC(=O)CC(c1cccc(OC)c1OC)c1c[nH]c2ccccc12 (stereo unspecified)	inconclusive: 7.94 µM [inhibitor, partial curve]		
COc1ccc(-c2nc(C(C)C)nc3c2CCN(C(=O)c2ccc(C(F)(F)F)cc2)CC3)cc1	inconclusive: 3.98 µM [inhibitor, single point]		
COc1ccccc1C(=O)Nc1ccc([C@@H](O)[C@H]2COCC(=O)N2Cc2ccc(F)cc2)cc1		inactive: -25%	
O=C(CCS(=O)(=O)c1cc(Br)cc2c1N(C(=O)C1CC1)CC2)N1CCN(c2cccc(C(F)(F)F)c2)CC1	active: 10 µM		
CCCNC(=O)c1c(NC(=O)c2ccccc2)sc2c1CCC(C(C)(C)C)C2 (stereo unspecified)	active: 11.2 µM		
Cn1nc(C(=O)NCC23CCC=C2N(CC2CC2)C(=O)CC3)c2ccccc21 (stereo unspecified)	inconclusive: 3.98 µM [inhibitor, partial curve, poor fit]		
O=C(C[C@H]1NC(=O)c2ccccc2NC1=O)Nc1cccc2[nH]ccc12		inactive: -21.7%	
COc1ccc(CNC(=O)c2cccn2-c2nnc(N3CCCCC3)s2)c(OC)c1	inconclusive: 20 µM [inhibitor, partial curve, poor fit]		
COc1ccc(C(=O)N2CC[C@H]3NC(=O)N(c4ccc(Oc5ccccc5)cc4)C(=O)[C@H]32)cc1	inconclusive: 10 µM [inhibitor, single point]		
COCCn1ncc(N2CCC(NC(=O)C3CCCCC3)CC2)cc1=O		inactive: 5.75%	
CCOC(=O)N1CCC2(CC1)OC(=O)C(C)=C2C(=O)NCc1ccccc1OC		inactive: -16.6%	
CN(C(=O)c1ccc2nc(-c3ccc(F)cc3)cn2c1)C1CCOCC1		inactive: -6.25%	
CN(C)C(=O)N1C2CCC1CN(c1ccc(C(F)(F)F)cc1)C2	inconclusive: 10 µM [inhibitor, single point]		
COc1ccccc1N1CCN(C(=O)CNS(=O)(=O)c2ccc(Br)s2)CC1	inconclusive: 0.891 µM [inhibitor, full curve]		

Structure (SMILES)	Potency	activity, negative = inhibition	outcome
CCOc1ccc(-c2nnc(CCC(=O)NC(C)CC)c(=O)[nH]2)cc1 (stereo unspecified)		inactive: -18.2%	
O=C1NC[C@@H](CCC(=O)N2CCCCC2)N2C[C@@H](NC(=S)Nc3ccc(Cl)cc3)C[C@@H]12	active: 6.31 µM		
COc1ccc(CCC(=O)N2CCCCCC2CN2CCC(OC)CC2)cc1 (stereo unspecified)	inconclusive: 3.98 µM [inhibitor, single point]		
CC(=O)NCCc1ncc(C)n1C1CCC1	inconclusive: 1.26 µM [inhibitor, full curve]		
Cc1ccc(-c2cc3c(=O)n(CC(O)c4ccc(C)c(C)c4)ccn3n2)c(C)c1 (stereo unspecified)	inconclusive: 2.24 µM [inhibitor, full curve]		
Fc1ccc2oc([C@H]3CCN(CC4CCCCC4)C3)nc2c1			inactive [at 44.1 µM]
COCCNC(=O)CCC[C@@H]1[C@H]2CCCN3CCC[C@@H](CN1Cc1ccccc1)[C@@H]23	inconclusive: 14.1 µM [inhibitor, partial curve, poor fit]		
Cc1ccccc1CNC[C@H]1O[C@H](Cc2cc(CN(C)Cc3ccccc3)on2)CC[C@@H]1O	inconclusive: 1.26 µM [inhibitor, partial curve, poor fit]		
O=C1C(c2ccccc2)CC2(CCN(Cc3cccc(O)c3)CC2)CN1C1CC1 (stereo unspecified)	inconclusive: 8.91 µM [inhibitor, partial curve, poor fit]		
N#Cc1cccc(NC(=O)N[C@H]2CO[C@H]3[C@@H]2OC[C@@H]3Nc2nccc(-c3cccc(F)c3)n2)c1	inconclusive: 20 µM [inhibitor, single point]		
COc1ccc(Nc2c(-c3ccsc3)nc3nc(C)cc(C)n23)cc1	inconclusive: 11.2 µM [inhibitor, partial curve, poor fit]		
CCCNC(=O)c1coc(COc2ccc3c(c2)C(c2cccc(C)c2)N(C(=O)C2CC2)CC3)n1 (stereo unspecified)	inconclusive: 3.98 µM [inhibitor, single point]		
Cc1ccc(NC(=O)CN2C(=O)CC(c3ccc(C)c(C)c3)=Nc3ccccc32)cc1	inconclusive: 11.2 µM [inhibitor, single point]		
c1ccc(-c2cnc(Nc3ccncc3)c3c2CCO3)cc1	inconclusive: 5.62 µM [inhibitor, single point]		
COc1ccc(CNC(=O)CN(C)S(=O)(=O)c2ccc3c(c2)c(=O)n(C)c(=O)n3C)cc1	inconclusive: 7.08 µM [inhibitor, single point]		
Cc1oc2c(c1C(=O)N(C)C)CN(Cc1ccc(Br)o1)CC2	inconclusive: 6.31 µM [inhibitor, partial curve, poor fit]		
CCS(=O)(=O)Nc1ccc(-c2cn3c(C)csc3n2)cc1		inconclusive: -141% [inhibitor] [at 5.79 µM]	
COc1ccc(C(=O)Oc2cc(-c3ccc(OC)c(OC)c3)cc(=O)c3c(C)oc(C)c23)cc1	inconclusive: 14.1 µM [inhibitor, partial curve, poor fit]		
CC(C)c1ccccc1OCC(=O)c1ccc2c(c1)N(CC(=O)N1CCCC1)C(=O)CO2			inactive
COc1ccc(C2Cn3cnc(C(=O)N4CCC(C(=O)Nc5ccc(C)cc5)CC4)c3CO2)cc1 (stereo unspecified)		inactive: -19.8%	
COc1ccc(-c2nn(-c3ccccc3C)cc2CN2C[C@@H](C)O[C@@H](C)C2)cc1F	active: 10 µM		
O=C(Cn1cc(C(=O)c2cccs2)c2ccccc21)Nc1ccc(Br)cc1	inconclusive: 17.8 µM [inhibitor, single point]		

Structure (SMILES)	Potency	activity, negative = inhibition	outcome
CNC(=O)C1(N2CCC[C@H]2C(=O)N(C)CCN(C)C)CCOCC1		inactive: 22.2% [at 44.1 µM]	
CCn1nccc1C(=O)N1CCC(OCC2CC2)C1 (stereo unspecified)		inactive: 26.5%	
COc1cc(C(=O)NCc2c(C)noc2C)ccc1OC1CCN(C(C)=O)CC1		inactive: -7.86%	
O=C1CCSC2(C(=O)N(Cc3ccc(F)cc3)c3ccccc32)N1c1cccc(F)c1 (stereo unspecified)	inconclusive: 1.41 µM [inhibitor, single point]		
CCN1C(=O)c2ccccc2S(=O)c2ccc(C(=O)NCc3ccc(Cl)cc3)cc21 (stereo unspecified)	inconclusive: 10 µM [inhibitor, single point]		
COCC1CN(C)CC12CCN(C(=O)c1ccc(OC)c(F)c1)CC2 (stereo unspecified)		inactive: 0.421%	
CCSc1nc2ccccc2c(OCc2cc(C(=O)OC)ccc2OC)c1C(=O)OC		inactive: -9.21%	
Cc1ccc(-c2nnc(C3CN(C(=O)CCC4CCCC4)CC34CCOCC4)o2)cc1 (stereo unspecified)		inactive: -4.59%	
CNCC(=O)N1CCC2(CC1)CN(Cc1ccccc1)CC2CO (stereo unspecified)	inconclusive: 1.12 µM [inhibitor, partial curve]		
O=C(C1CCCC1)N1CCc2nc(C3CC3)nc(-c3ccc(Cl)cc3)c2C1	inconclusive: 2.82 µM [inhibitor, single point]		
CCCCNC(=O)CC(c1cccc([N+](=O)[O-])c1)c1c[nH]c2ccccc12 (stereo unspecified)	inconclusive: 17.8 µM [inhibitor, single point]		
O[C@@H]1C[C@@H](c2nc(-c3ccccc3)no2)N(Cc2ncc[nH]2)C1	inconclusive: 20 µM [inhibitor, partial curve, poor fit]		
CN1C(=O)C(CC(=O)NC2CCCCC2)Sc2ncccc21 (stereo unspecified)		inactive: -0.945%	
N#Cc1cccc(CN2CCCCCNC(=O)[C@@H]3CCC[C@@H]32)c1		inactive: -8.6%	
CCOc1ccc(CNC(=O)CSc2c3c(nc4ccc(Cl)cc24)CCCC3)cc1	inconclusive: 17.8 µM [inhibitor, single point]		
Cc1ccc(CNC(=O)Cn2c3ncccc3c(=O)n2-c2ccc(C)cc2)cc1	inconclusive: 7.08 µM [inhibitor, partial curve, poor fit]		
CC(c1cccs1)N(C)Cc1cccc(C(F)(F)F)c1 (stereo unspecified)		inactive: 16% [at 44.1 µM]	
O=C(NC1CCN(Cc2ccccc2)CC1)c1nnn2c1COC(c1ccc(F)cc1)C2 (stereo unspecified)	inconclusive: 12.6 µM [inhibitor, single point]		
O=[N+]([O-])c1ccc(O)c(-c2ccnc3cc(-c4ccccc4)nn23)c1	active: 10 µM		
COCCNC(=O)C[C@@H]1C[C@@H](C(C)C)[C@H](CNS(=O)(=O)c2ccc(OC)cc2)C=C1C	inconclusive: 7.94 µM [inhibitor, single point]		
Cc1ccc(Cn2c(CN3CCN(c4cccc(Cl)c4)CC3)nc3c2c(=O)n(C)c(=O)n3C)cc1	inconclusive: 5.01 µM [inhibitor, partial curve]		
Fc1ccc(OC2CN(Cc3cccc4ccccc34)C2)c(F)c1		inconclusive: -152% [inhibitor]	
